Some of the results follow. Each Rep nickase domain was tested in vitro on the same pool of single strands (3 µM enzyme, 1 h, 37 °C); shown is the middle of each 90-letter strand. The score is log2 (uncut reads / reads without enzyme); more negative means more cut, near 0 not cut, and no call is made. Because reads are shares of a total, they shift together, so uncut sequences can rise above 0 when many others are cut.

The record followed here is the supplement of paper PMC7826260.

The subject of the assay is T1, Rep nickase domain of tomato golden mosaic virus.
T1 sequence (Rep 1-124, printed without the tag): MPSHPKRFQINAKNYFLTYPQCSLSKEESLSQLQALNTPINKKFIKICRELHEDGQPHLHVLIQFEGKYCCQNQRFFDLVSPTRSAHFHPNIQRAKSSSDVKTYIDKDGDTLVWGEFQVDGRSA
Put plainly: uncleaved DNA left, log2 of reads against the no-enzyme library (log2 ratio); higher = less cleavage (more negative = more Rep cleavage of the k-mer); sequences stand for … in CTCGTCCG…ACCGGAGA
How it is done: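 A pool of 90-nt single-stranded DNAs with seven random bases just before the constant AC of the nick site (name = the seven bases) was cut by 3 µM recombinant His6-SUMO-tagged Rep nickase domain (300 nM DNA, 50 mM HEPES pH 8.0, 50 mM NaCl, 1 mM MnCl2, 1 h, 37 °C, three replicates). Uncut DNA was amplified and sequenced.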
On to ACCAGTA, for which the “uncleaved DNA left (log2)” value is 0.07.
Then CGCACTC, with -0.234; and GCCCAGC, with 0.108; and CCGTTGC, with -0.122.
Next, GACGATA: -0.0461; TAGGATT: -0.103.
Take ACTCTGG: the “uncleaved DNA left (log2)” value amounted to 0.068.
For the sequence CACTTGC, the “uncleaved DNA left (log2)” value was -0.146.
Then ACCGACG, with 0.0392; and GTTTGTT, with 0.18.
Next, TCAATGT: 0.127.
Then GGGTAAA, with 0.0863; and GTGCCGA, with -0.151.
As for CAGGTTG, the “uncleaved DNA left (log2)” value was 0.0305.
Next, GTTTTGA: 0.127.
As for CATCGCA, the “uncleaved DNA left (log2)” value is 0.0148.
Then ATCTATC, with 0.0474; and CTGGTTA, with -0.0503; and CGCCGGG, with 0.0928.
Consider TACGTCT, for which the “uncleaved DNA left (log2)” value was -0.106.
Next, GCTGCGC: -0.0929; CTCGCCA: -0.0846; GTGGCGT: -0.0471.
As to GTATGAT, the “uncleaved DNA left (log2)” value came to 0.0749.
As for GCTGGAG, the “uncleaved DNA left (log2)” value is 0.01.
Next, AATAGTC: -0.016.
GACAGTA: the “uncleaved DNA left (log2)” value came to 0.0268.
For TTCGGAA, the “uncleaved DNA left (log2)” value was 0.0732.
As to GCTGAGC, the “uncleaved DNA left (log2)” value stood at 0.0602.
As to TACGGGT, the “uncleaved DNA left (log2)” value is 0.0124.
Next, GAGGTTC: 0.0724.
Then CGAATTC, with 0.0658; and GCATAAC, with 0.013.
Take AGAAAGT: the “uncleaved DNA left (log2)” value was 0.0454.
Then AACCGCG, with -0.0619; and ATAGAGA, with 0.178.
Then CTTAATT, with -0.0882; and TCTGAAT, with 0.176.
Then GCGTCCC, with -0.121; and GATCTCT, with 0.0298.
